{"source": "patent US20110319597A1", "about": "(CAPHALON AUSTRALIA, published 2011)", "binders": {"B1": {"name": "TNFα dAb Fc variant G64Q (Fc fusion, name in Kabat numbering)", "chain": "DIQMTQSPSSLSASVGDRVTITCRASQAIDSYLHWYQQKPGKAPKLLIYSASNLETGVPSRFSQSGSGTDFTLTISSLLPEDFATYYCQQVVWRPFTFGQGTKVEIKRV[human IgG1 Fc with changes left out]"}, "B2": {"name": "TNFα dAb Fc variant G64Y (Fc fusion, name in Kabat numbering)", "chain": "DIQMTQSPSSLSASVGDRVTITCRASQAIDSYLHWYQQKPGKAPKLLIYSASNLETGVPSRFSYSGSGTDFTLTISSLLPEDFATYYCQQVVWRPFTFGQGTKVEIKRV[human IgG1 Fc with changes left out]"}, "B3": {"name": "TNFα dAb Fc variant G66D (Fc fusion, name in Kabat numbering)", "chain": "DIQMTQSPSSLSASVGDRVTITCRASQAIDSYLHWYQQKPGKAPKLLIYSASNLETGVPSRFSGSDSGTDFTLTISSLLPEDFATYYCQQVVWRPFTFGQGTKVEIKRV[human IgG1 Fc with changes left out]"}, "B4": {"name": "TNFα dAb Fc variant G66H (Fc fusion, name in Kabat numbering)", "chain": "DIQMTQSPSSLSASVGDRVTITCRASQAIDSYLHWYQQKPGKAPKLLIYSASNLETGVPSRFSGSHSGTDFTLTISSLLPEDFATYYCQQVVWRPFTFGQGTKVEIKRV[human IgG1 Fc with changes left out]"}, "B5": {"name": "TNFα dAb Fc variant G66L (Fc fusion, name in Kabat numbering)", "chain": "DIQMTQSPSSLSASVGDRVTITCRASQAIDSYLHWYQQKPGKAPKLLIYSASNLETGVPSRFSGSLSGTDFTLTISSLLPEDFATYYCQQVVWRPFTFGQGTKVEIKRV[human IgG1 Fc with changes left out]"}, "B6": {"name": "TNFα dAb Fc variant G66P (Fc fusion, name in Kabat numbering)", "chain": "DIQMTQSPSSLSASVGDRVTITCRASQAIDSYLHWYQQKPGKAPKLLIYSASNLETGVPSRFSGSPSGTDFTLTISSLLPEDFATYYCQQVVWRPFTFGQGTKVEIKRV[human IgG1 Fc with changes left out]"}, "B7": {"name": "TNFα dAb Fc variant G66S (Fc fusion, name in Kabat numbering)", "chain": "DIQMTQSPSSLSASVGDRVTITCRASQAIDSYLHWYQQKPGKAPKLLIYSASNLETGVPSRFSGSSSGTDFTLTISSLLPEDFATYYCQQVVWRPFTFGQGTKVEIKRV[human IgG1 Fc with changes left out]"}, "B8": {"name": "TNFα dAb Fc variant G68H (Fc fusion, name in Kabat numbering)", "chain": "DIQMTQSPSSLSASVGDRVTITCRASQAIDSYLHWYQQKPGKAPKLLIYSASNLETGVPSRFSGSGSHTDFTLTISSLLPEDFATYYCQQVVWRPFTFGQGTKVEIKRV[human IgG1 Fc with changes left out]"}, "B9": {"name": "TNFα dAb Fc variant G68K (Fc fusion, name in Kabat numbering)", "chain": "DIQMTQSPSSLSASVGDRVTITCRASQAIDSYLHWYQQKPGKAPKLLIYSASNLETGVPSRFSGSGSKTDFTLTISSLLPEDFATYYCQQVVWRPFTFGQGTKVEIKRV[human IgG1 Fc with changes left out]"}, "B10": {"name": "TNFα dAb Fc variant G68L (Fc fusion, name in Kabat numbering)", "chain": "DIQMTQSPSSLSASVGDRVTITCRASQAIDSYLHWYQQKPGKAPKLLIYSASNLETGVPSRFSGSGSLTDFTLTISSLLPEDFATYYCQQVVWRPFTFGQGTKVEIKRV[human IgG1 Fc with changes left out]"}, "B11": {"name": "TNFα dAb Fc variant G68P (Fc fusion, name in Kabat numbering)", "chain": "DIQMTQSPSSLSASVGDRVTITCRASQAIDSYLHWYQQKPGKAPKLLIYSASNLETGVPSRFSGSGSPTDFTLTISSLLPEDFATYYCQQVVWRPFTFGQGTKVEIKRV[human IgG1 Fc with changes left out]"}, "B12": {"name": "TNFα dAb Fc variant G68Q (Fc fusion, name in Kabat numbering)", "chain": "DIQMTQSPSSLSASVGDRVTITCRASQAIDSYLHWYQQKPGKAPKLLIYSASNLETGVPSRFSGSGSQTDFTLTISSLLPEDFATYYCQQVVWRPFTFGQGTKVEIKRV[human IgG1 Fc with changes left out]"}, "B13": {"name": "TNFα dAb Fc variant G68Y (Fc fusion, name in Kabat numbering)", "chain": "DIQMTQSPSSLSASVGDRVTITCRASQAIDSYLHWYQQKPGKAPKLLIYSASNLETGVPSRFSGSGSYTDFTLTISSLLPEDFATYYCQQVVWRPFTFGQGTKVEIKRV[human IgG1 Fc with changes left out]"}, "B14": {"name": "TNFα dAb Fc variant I48A (Fc fusion, name in Kabat numbering)", "chain": "DIQMTQSPSSLSASVGDRVTITCRASQAIDSYLHWYQQKPGKAPKLLAYSASNLETGVPSRFSGSGSGTDFTLTISSLLPEDFATYYCQQVVWRPFTFGQGTKVEIKRV[human IgG1 Fc with changes left out]"}, "B15": {"name": "TNFα dAb Fc variant I48D (Fc fusion, name in Kabat numbering)", "chain": "DIQMTQSPSSLSASVGDRVTITCRASQAIDSYLHWYQQKPGKAPKLLDYSASNLETGVPSRFSGSGSGTDFTLTISSLLPEDFATYYCQQVVWRPFTFGQGTKVEIKRV[human IgG1 Fc with changes left out]"}, "B16": {"name": "TNFα dAb Fc variant I48H (Fc fusion, name in Kabat numbering)", "chain": "DIQMTQSPSSLSASVGDRVTITCRASQAIDSYLHWYQQKPGKAPKLLHYSASNLETGVPSRFSGSGSGTDFTLTISSLLPEDFATYYCQQVVWRPFTFGQGTKVEIKRV[human IgG1 Fc with changes left out]"}, "B17": {"name": "TNFα dAb Fc variant I48K (Fc fusion, name in Kabat numbering)", "chain": "DIQMTQSPSSLSASVGDRVTITCRASQAIDSYLHWYQQKPGKAPKLLKYSASNLETGVPSRFSGSGSGTDFTLTISSLLPEDFATYYCQQVVWRPFTFGQGTKVEIKRV[human IgG1 Fc with changes left out]"}, "B18": {"name": "TNFα dAb Fc variant I48P (Fc fusion, name in Kabat numbering)", "chain": "DIQMTQSPSSLSASVGDRVTITCRASQAIDSYLHWYQQKPGKAPKLLPYSASNLETGVPSRFSGSGSGTDFTLTISSLLPEDFATYYCQQVVWRPFTFGQGTKVEIKRV[human IgG1 Fc with changes left out]"}, "B19": {"name": "TNFα dAb Fc variant I48Q (Fc fusion, name in Kabat numbering)", "chain": "DIQMTQSPSSLSASVGDRVTITCRASQAIDSYLHWYQQKPGKAPKLLQYSASNLETGVPSRFSGSGSGTDFTLTISSLLPEDFATYYCQQVVWRPFTFGQGTKVEIKRV[human IgG1 Fc with changes left out]"}, "B20": {"name": "TNFα dAb Fc variant I48S (Fc fusion, name in Kabat numbering)", "chain": "DIQMTQSPSSLSASVGDRVTITCRASQAIDSYLHWYQQKPGKAPKLLSYSASNLETGVPSRFSGSGSGTDFTLTISSLLPEDFATYYCQQVVWRPFTFGQGTKVEIKRV[human IgG1 Fc with changes left out]"}, "B21": {"name": "TNFα dAb Fc variant I48Y (Fc fusion, name in Kabat numbering)", "chain": "DIQMTQSPSSLSASVGDRVTITCRASQAIDSYLHWYQQKPGKAPKLLYYSASNLETGVPSRFSGSGSGTDFTLTISSLLPEDFATYYCQQVVWRPFTFGQGTKVEIKRV[human IgG1 Fc with changes left out]"}, "B22": {"name": "TNFα dAb Fc variant I75A (Fc fusion, name in Kabat numbering)", "chain": "DIQMTQSPSSLSASVGDRVTITCRASQAIDSYLHWYQQKPGKAPKLLIYSASNLETGVPSRFSGSGSGTDFTLTASSLLPEDFATYYCQQVVWRPFTFGQGTKVEIKRV[human IgG1 Fc with changes left out]"}, "B23": {"name": "TNFα dAb Fc variant I75D (Fc fusion, name in Kabat numbering)", "chain": "DIQMTQSPSSLSASVGDRVTITCRASQAIDSYLHWYQQKPGKAPKLLIYSASNLETGVPSRFSGSGSGTDFTLTDSSLLPEDFATYYCQQVVWRPFTFGQGTKVEIKRV[human IgG1 Fc with changes left out]"}, "B24": {"name": "TNFα dAb Fc variant I75H (Fc fusion, name in Kabat numbering)", "chain": "DIQMTQSPSSLSASVGDRVTITCRASQAIDSYLHWYQQKPGKAPKLLIYSASNLETGVPSRFSGSGSGTDFTLTHSSLLPEDFATYYCQQVVWRPFTFGQGTKVEIKRV[human IgG1 Fc with changes left out]"}, "B25": {"name": "TNFα dAb Fc variant I75K (Fc fusion, name in Kabat numbering)", "chain": "DIQMTQSPSSLSASVGDRVTITCRASQAIDSYLHWYQQKPGKAPKLLIYSASNLETGVPSRFSGSGSGTDFTLTKSSLLPEDFATYYCQQVVWRPFTFGQGTKVEIKRV[human IgG1 Fc with changes left out]"}, "B26": {"name": "TNFα dAb Fc variant I75L (Fc fusion, name in Kabat numbering)", "chain": "DIQMTQSPSSLSASVGDRVTITCRASQAIDSYLHWYQQKPGKAPKLLIYSASNLETGVPSRFSGSGSGTDFTLTLSSLLPEDFATYYCQQVVWRPFTFGQGTKVEIKRV[human IgG1 Fc with changes left out]"}, "B27": {"name": "TNFα dAb Fc variant I75P (Fc fusion, name in Kabat numbering)", "chain": "DIQMTQSPSSLSASVGDRVTITCRASQAIDSYLHWYQQKPGKAPKLLIYSASNLETGVPSRFSGSGSGTDFTLTPSSLLPEDFATYYCQQVVWRPFTFGQGTKVEIKRV[human IgG1 Fc with changes left out]"}, "B28": {"name": "TNFα dAb Fc variant I75Q (Fc fusion, name in Kabat numbering)", "chain": "DIQMTQSPSSLSASVGDRVTITCRASQAIDSYLHWYQQKPGKAPKLLIYSASNLETGVPSRFSGSGSGTDFTLTQSSLLPEDFATYYCQQVVWRPFTFGQGTKVEIKRV[human IgG1 Fc with changes left out]"}, "B29": {"name": "TNFα dAb Fc variant I75S (Fc fusion, name in Kabat numbering)", "chain": "DIQMTQSPSSLSASVGDRVTITCRASQAIDSYLHWYQQKPGKAPKLLIYSASNLETGVPSRFSGSGSGTDFTLTSSSLLPEDFATYYCQQVVWRPFTFGQGTKVEIKRV[human IgG1 Fc with changes left out]"}, "B30": {"name": "TNFα dAb Fc variant I75Y (Fc fusion, name in Kabat numbering)", "chain": "DIQMTQSPSSLSASVGDRVTITCRASQAIDSYLHWYQQKPGKAPKLLIYSASNLETGVPSRFSGSGSGTDFTLTYSSLLPEDFATYYCQQVVWRPFTFGQGTKVEIKRV[human IgG1 Fc with changes left out]"}, "B31": {"name": "TNFα dAb Fc variant K39A (Fc fusion, name in Kabat numbering)", "chain": "DIQMTQSPSSLSASVGDRVTITCRASQAIDSYLHWYQQAPGKAPKLLIYSASNLETGVPSRFSGSGSGTDFTLTISSLLPEDFATYYCQQVVWRPFTFGQGTKVEIKRV[human IgG1 Fc with changes left out]"}}, "data": [{"target": "T1, recombinant human TNFα (CytoLab) (human, UniProt P01375 partial chain)", "T1 construct": "coated on the ELISA plate at 1 µg/ml; also called Tumour necrosis factor alpha", "T1 sequence (P01375 77-233 limits assumed)": "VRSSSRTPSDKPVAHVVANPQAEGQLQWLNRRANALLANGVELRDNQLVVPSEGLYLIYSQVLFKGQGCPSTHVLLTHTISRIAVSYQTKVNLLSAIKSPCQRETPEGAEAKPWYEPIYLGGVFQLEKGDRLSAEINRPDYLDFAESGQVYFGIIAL", "experiment": "ELISA on coated human TNFα", "units": {"A450 (AU)": "AU"}, "values": [{"binder": "B1", "A450 (AU)": 0.163}, {"binder": "B2", "A450 (AU)": 0.193}, {"binder": "B3", "A450 (AU)": 0.808}, {"binder": "B4", "A450 (AU)": 0.883}, {"binder": "B5", "A450 (AU)": 0.842}, {"binder": "B6", "A450 (AU)": 0.184}, {"binder": "B7", "A450 (AU)": 0.393}, {"binder": "B8", "A450 (AU)": 0.325}, {"binder": "B9", "A450 (AU)": 0.587}, {"binder": "B10", "A450 (AU)": 0.443}, {"binder": "B11", "A450 (AU)": 0.827}, {"binder": "B12", "A450 (AU)": 0.889}, {"binder": "B13", "A450 (AU)": 0.305}, {"binder": "B14", "A450 (AU)": 1.25}, {"binder": "B15", "A450 (AU)": 0.239}, {"binder": "B16", "A450 (AU)": 0.234}, {"binder": "B17", "A450 (AU)": 0.253}, {"binder": "B18", "A450 (AU)": 0.193}, {"binder": "B19", "A450 (AU)": 0.265}, {"binder": "B20", "A450 (AU)": 0.293}, {"binder": "B21", "A450 (AU)": 0.408}, {"binder": "B22", "A450 (AU)": 0.196}, {"binder": "B23", "A450 (AU)": 0.167}, {"binder": "B24", "A450 (AU)": 0.201}, {"binder": "B25", "A450 (AU)": 0.18}, {"binder": "B26", "A450 (AU)": 0.858}, {"binder": "B27", "A450 (AU)": 0.183}, {"binder": "B28", "A450 (AU)": 0.203}, {"binder": "B29", "A450 (AU)": 0.194}, {"binder": "B30", "A450 (AU)": 0.168}, {"binder": "B31", "A450 (AU)": 0.802}]}]}
